# Measured values published in ChEMBL document CHEMBL4888484, “Replenishing the malaria drug discovery pipeline: Screening and hit evaluation of the MMV Hit Generation Library 1 (HGL1) against asexual blood stage Plasmodium falciparum ,using a nano luciferase reporter read-out” (2022).
# Screen size: about 150,000 compounds; about 540 (0.36%) showed an effect of 50% or more. This is one part of the list.
# System: Plasmodium falciparum
# Test: Primary screen in NF54 nanoGlo assay, in single point, at 2uM, 72h; a lower Z score goes with more inhibition
# Format: functional, Erythrocyte
# Conditions: timepoint 72 hour
Structure (SMILES),% Inhibition [%],Z score
Cc1ccc(-c2nc(C)c(-c3cc[nH]n3)s2)cc1,30,-3.91
N#Cc1cnc(N2CC(C3CC3)C2C2CC2)cn1 (stereo unspecified),2,-0.3
NS(=O)(=O)c1ccc(CNC(=O)c2[nH]nc3c2CCCCC3)cc1,-1,0.1
O=C(NCc1ccccn1)c1ccc2c(c1)nc1n2CCCC1,11,-2.03
Cc1c(Cl)ccc2c(=O)c3c([nH]c12)CCN(CC(=O)Nc1ccc2c(c1)OCCO2)C3,-1,0.19
CN(C)c1c(F)c(F)c2cc3c(C(C)(C)C)nn(C)c3nc2c1F,36,-1.61
O=C(c1ccccc1)N1C[C@@H]2COCCN2C2(C1)CN(C1CCCCC1)C2,2,-0.38
CC(C)(C)C(=O)CNC(=O)c1ccoc1,-7,1
O=C(NC1(CN2CCCC2)CCCCC1)c1cccc(-c2ncccn2)c1,-7,1.16
O=C1c2ccccc2N[C@H](c2cccc3ccccc23)N1CCc1ccccc1,-19,3.35
Cc1ccc(C)c2c1NC(=O)[C@H]2CC(=O)N(C)Cc1[nH]nc2c1CCC2,8,-0.75
CCOc1cccc(CNC(=O)[C@]2(C)CCN(C)C2=O)c1,-9,1.1
CCC[C@]1(C(=O)O)CCCN(Cc2ccc(CC)cn2)C1,1,-0.23
Cc1cc(Oc2cnn(C)c(=O)c2Nc2cccc(C(=O)NCc3ccc(F)cc3)c2)ccc1Cl,-19,1.84
CCOC(=O)N1CCC(NC(=O)c2cc(N)cc3nc(-c4ccccc4OC)n(C)c23)CC1,3,-0.3
O=C(Cn1c(-c2cccs2)cc2ccccc21)N1CCN(c2ccccc2F)CC1,-4,0.53
Cn1c(CNC2CCCC(S(C)(=O)=O)C2)cc2ccccc21 (stereo unspecified),0,-0.03
Cc1ccc(N2CCN(c3nccn4c(=O)n(CC(=O)Nc5ccc(C)cc5Cl)nc34)CC2)cc1,-1,0.08
Cc1ccc(S(=O)(=O)Nc2ncccc2N2CCOCC2)o1,17,-2.18
O=c1sc2ccccc2n1COc1ccccc1,-11,1.59
Cc1ccc(C(F)(F)F)c(NC(=O)N2CCNC(=O)C[C@@H]2C)c1,-8,1.48
COc1cccc2c1C(=O)N1C[C@H](N(C)C)C[C@H]1C(=O)N2,-16,2.09
CC(C)COc1ncccc1C(=O)N(c1ccccc1)[C@H]1CCOC1,-6,1.13
CCCc1ccc(CN2CCn3nc(CNS(C)(=O)=O)cc3C2)o1,-4,0.43
CC(C)Cc1nc2cc(NS(=O)(=O)N(C)C)cc(C(=O)N3CCC[C@H](C(N)=O)C3)c2n1C,-9,1.36
COc1cc(C(=O)O)cc(-c2ccc(C(=O)N3CCC[C@H](N(C)C)C3)cc2)n1,-14,1.93
O=C(CNC(=O)c1cccc(Cl)c1)NCCOCC(F)(F)C(F)F,3,-0.3

Structure (SMILES),% Inhibition [%],Z score
COc1cc(C)c(NC(=O)N2CCc3cc(-c4ccccc4)oc3C2)cc1F,-7,0.81
CCO[C@H]1C[C@@H](NC(=O)c2cnn(C3CCCCC3)c2C)C1,-13,1.68
Cc1ccc(CN2c3ccc(F)cc3OC[C@@H]2CC(=O)NCc2ccccc2)cc1,-1,0.13
Cc1cc(Cn2ccnc2-c2ccncc2)cc(C)n1,-8,0.96
O=C(O)[C@H]1C[C@@H]1C(=O)Nc1ccnn1C1CCCc2ccccc21 (stereo partly specified),-10,2
CNC(=O)[C@H]1CCN(S(=O)(=O)CCC2CCCC2)C1,-3,0.53
Nc1ccc(C(=O)N2CCNC2=O)cc1,-12,1.08
Cc1cc(C(=O)N2CCCCCC2)ccc1N(C)S(C)(=O)=O,-15,2.01
COc1nc(C)ccc1-c1nnc([C@@H](C)CN2CCC(C)CC2)o1,-12,1.56
COc1ccc(C2=Nc3ncnn3/C2=N/Cc2ccccc2OC)cc1,3,-0.39
CC(C)CN1CCC(CN(C)C(=O)CC2(c3ccccc3)CC(=O)N(Cc3cccs3)C2=O)C1 (stereo unspecified),1,-0.06
Cc1nnccc1NC(=O)N[C@H](c1ccncc1)C1CC1,4,-0.6
O=C(O)[C@H]1CN(C(=O)Cc2ccccc2F)C[C@@H]1c1ccc2c(c1)OCO2,-21,2
O=C(N[C@H]1CCOC12CCCC2)c1cc(C2CC2)on1,-4,0.68
O=C(Nc1sccc1C(=O)O)c1ccc2c(c1)CCCC2,-9,0.79
COc1ccc(C2=CN(CC(=O)c3ccc(Cl)cc3)C3=CCCCCN23)cc1,37,-3.83
CCOC(=O)c1ccc(NC(=O)Cn2nc3ccc(C(=O)Nc4cccc(C)c4)cn3c2=O)cc1,-24,2.13
O=C(NCC[C@H]1CCCO1)NCc1csc(C2CC2)n1,-8,1.07
C[C@@H](CCCC(C)(C)O)NCc1cc2ccc(Cl)cc2n(CCOc2ccccc2)c1=O,-2,0.24
CCOC1CC(CO)(NCc2cc(C#N)cs2)C1(C)C (stereo unspecified),1,-0.24
COc1cc(C(=O)NCCn2nc(C)ccc2=O)ncn1,2,-0.42
CCNC(=NCc1noc(C(C)(C)C)n1)NCC,1,-0.1
COc1ccccc1N1CCN(C(=O)c2cc3n(n2)[C@H](C(F)(F)F)C[C@H](c2ccco2)N3)CC1,-6,0.72
O=C(c1cc(Cl)ccc1F)N1CCCN(C2CCCCC2)CC1,-11,2.03
O=C([C@H]1CCCN(C(=O)N2CCc3sccc3C2)C1)N1CCc2[nH]ncc2C1,32,-4.65
CN(C(=O)C1CCS(=O)(=O)C1)C1CCCN(Cc2ccccc2)C1 (stereo unspecified),-3,0.5
